# Reference: the supplement of paper PMC3334620
# Whole data set: some 33,000 sequences, median “E-score (-0.5 to 0.5)” near -0.056, cut for the highest 2% near 0.38. Some of the results follow.
# Target: Stb4 (UniProt P50104)
# Test: PBM E-score (8-mer binding enrichment) (E-score (-0.5 to 0.5)); higher = stronger / more preferred TF binding; most listed sequences are background and not binding sites
# Conditions: protein concentration: 200 nM; construct: GST-DNA-binding domain
# Protocol: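 Universal 'all 10-mer' protein binding microarrays (Agilent AMADID 015681) probed with GST-tagged S. cerevisiae TFs (full-length or DBD) made by in vitro transcription/translation (PURExpress), about 100-200 nM. Bound TF was detected with fluorescent anti-GST. Each ungapped 8-mer (which stands for itself and its reverse complement) is scored by the PBM enrichment score (E-score), a modified Wilcoxon-Mann-Whitney statistic from -0.5 to +0.5, computed with the Universal PBM Analysis Suite. Scale: above 0.35 generally sequence-specific binding.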
row,Sequence,PBM E-score
1,AGTCCAGG,-0.307
2,CACTCTAG,-0.155
3,CCCGGAGG,0.206
4,GATCACAC,-0.0425
5,CGGTTCCA,0.157
6,GCTGTCAC,-0.0747
7,AGGGTTTC,-0.0857
8,AGAACGGG,0.111
9,CTGAAAAA,-0.0183
10,CCTTATTC,-0.103
11,ACACCGCC,0.0179
12,ACAACGTA,-0.257
13,TACTTCCA,-0.0188
14,ATCCACAC,0.0848
15,AAGTGTCG,0.0429
16,CGTCGGTC,0.224
17,ACTAATCG,0.144
18,GAGCACGA,0.0394
19,CGCGCTAG,0.0593
20,GCCATACA,-0.146
21,GATGATCA,0.0157
22,ATAGGAGA,-0.344

row,Sequence,PBM E-score
1,GGCCGTAA,0.075
2,AGCTAGAT,-0.333
3,CCCCTTGA,-0.0092
4,TAGGTTCA,0.0146
5,GTTAGCTA,-0.0337
6,GCAGACAC,0.117
7,ATCAAATG,0.129
8,CCGGAATA,0.347
9,GTTAAGCA,0.11
10,AGAATGCA,0.0754
11,CGGCATGC,0.267
12,ACTAGGGG,-0.0854
13,TGCCTACA,0.0695
14,GCGGGGAC,0.174
15,GTGGTTAA,-0.0363
16,CGTCGTGC,-0.00663
17,AGGTATAA,-0.056
18,AATGTAAA,0.0285
19,CCTGGTCA,-0.209
20,AGATCGTG,-0.278
21,AAGGCCCA,-0.295
22,CACGCATG,-0.209

row,Sequence,PBM E-score
1,AATCATCT,-0.146
2,ACCTATCA,-0.0596
3,CTATACGA,-0.0414
4,CACGGCGG,0.058
5,AAGATAAG,-0.117
6,ACCTAGTA,-0.16
7,TTCTGCAA,-0.0777
8,ATATGCTC,0.143
9,ATACGCAT,0.00311
10,AAGCAGGA,0.0512
11,CCATATGG,-0.095
12,TCTGCCAA,-0.326
13,GGCCTTAA,-0.0387
14,AGACGATA,-0.0915
15,AATGCGGA,0.285
16,GGGCTGTA,-0.139
17,TACCGGTA,0.149
18,ATGTGACC,-0.0651
19,ATGAGAGA,-0.171
20,AACCAAGT,-0.215
21,CTGAGTCA,-0.121
22,CATACCGA,0.287

row,Sequence,PBM E-score
1,CCCCCAGC,-0.172
2,AACCGAAA,0.372
3,AAGACTTA,-0.199
4,AGTCTGCC,-0.12
5,AGACCTGC,-0.287
6,CGACTGGA,0.052
7,GGTCCCAA,-0.199
8,CCGCGCTA,0.168
9,CTAGATAA,-0.167
10,ATCCTCTG,-0.208
11,AATTGCAT,-0.0004
12,GCGATACA,-0.164
13,ATGGCCCC,0.132
14,CGAAGTAA,0.139
15,ATATCAAT,-0.0398
16,ACATCTGA,-0.259
17,ATACGGCA,0.169
18,ACGTGTAT,-0.0814
19,AACACTAG,-0.295
20,AGCTGCAT,-0.251
